The list shows a part of the results.

For this experiment, the target named is T1, MBP-FoxP1dN (Mus musculus, UniProt P58462 326-579).
T1 sequence: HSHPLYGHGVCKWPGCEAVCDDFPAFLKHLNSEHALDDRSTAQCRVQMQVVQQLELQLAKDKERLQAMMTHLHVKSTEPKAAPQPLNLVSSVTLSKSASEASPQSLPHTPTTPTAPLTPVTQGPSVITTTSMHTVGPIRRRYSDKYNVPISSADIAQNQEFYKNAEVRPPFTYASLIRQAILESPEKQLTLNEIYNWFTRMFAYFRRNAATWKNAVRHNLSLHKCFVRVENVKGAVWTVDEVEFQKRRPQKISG
Briefly: PD-seq (MBP pull-down with sequencing); 20 mM Tris-HCl pH 7.5, 100 mM NaCl, 1.5 mM MgCl2, 0.4 uM protein, 0.1 uM dsDNA library, 30 min, room temperature, amylose pull-down; high values mean tight binding. Particulars: protein: recombinant; tags: His6-MBP; chain copies: 2; dsDNA, one strand shown. The procedure, abridged:
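Binding is reads-per-million enrichment of pull-down over input, with replicates pooled. It comes from 30 min room-temperature incubation in Tris pH 7.5 buffer with NaCl and MgCl2 of 0.4 µM His6-MBP-tagged, N-terminally truncated mouse FoxP3 or FoxP1 fragment from E. coli with 0.1 µM Klenow-filled degenerate double-stranded DNA library, followed by amylose resin capture, three washes and Illumina sequencing of the released DNA.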
For “GATGATTGTTCTCCCAGCTGATGAATTACAGCGGTCGAGTAAACAAATTTTCCTAATCTTTCTGTTCAAGCGCCATCTAC”, the binding signal is 1.05 RPM ratio (pull-down/input).
The figure for “GATGATTGTTCTCCCAGCTGATGAATTGTATTGGTCGAGTAAACAAATTTTCCTAATCTTTCTGTTCAAGCGCCATCTAC” is 1.62 RPM ratio (pull-down/input); for “GATGATTGTTCTCCCAGCTGATGAATTTTCTACGTCGAGTAAACAAATTTTCCTAATCTTTCTGTTCAAGCGCCATCTAC” it is 0.877 RPM ratio (pull-down/input).
For the sequence “GATGATTGTTCTCCCAGCTGATGAATTCTTTGAGTCGAGTAAACAAATTTTCCTAATCTTTCTGTTCAAGCGCCATCTAC”, the binding signal is 0.88 RPM ratio (pull-down/input).
With “GATGATTGTTCTCCCAGCTGATGAATTTGGATAGTCGAGTAAACAAATTTTCCTAATCTTTCTGTTCAAGCGCCATCTAC”, the binding signal was 0.91 RPM ratio (pull-down/input).
With “GATGATTGTTCTCCCAGCTGATGAATTTCTTATGTCGAGTAAACAAATTTTCCTAATCTTTCTGTTCAAGCGCCATCTAC” the figure was 0.889 RPM ratio (pull-down/input).
As for “GATGATTGTTCTCCCAGCTGATGAATTGCTGAGTTCGAGTAAACAAATTTTCCTAATCTTTCTGTTCAAGCGCCATCTAC”, the binding signal was 0.927 RPM ratio (pull-down/input).
With “GATGATTGTTCTCCCAGCTGATGAATTAAAAGCATCGAGTAAACAAATTTTCCTAATCTTTCTGTTCAAGCGCCATCTAC” the figure was 1.37 RPM ratio (pull-down/input); with “GATGATTGTTCTCCCAGCTGATGAATTGTAGACTTCGAGTAAACAAATTTTCCTAATCTTTCTGTTCAAGCGCCATCTAC”, 0.909 RPM ratio (pull-down/input).
For “GATGATTGTTCTCCCAGCTGATGAATTCGCTATATCGAGTAAACAAATTTTCCTAATCTTTCTGTTCAAGCGCCATCTAC”, the binding signal was 1.02 RPM ratio (pull-down/input).
“GATGATTGTTCTCCCAGCTGATGAATTCCGCTATTCGAGTAAACAAATTTTCCTAATCTTTCTGTTCAAGCGCCATCTAC”: the binding signal was 0.879 RPM ratio (pull-down/input).
As to “GATGATTGTTCTCCCAGCTGATGAATTCTGGTACTCGAGTAAACAAATTTTCCTAATCTTTCTGTTCAAGCGCCATCTAC”, the binding signal was 0.832 RPM ratio (pull-down/input).
As for “GATGATTGTTCTCCCAGCTGATGAATTTTGGTTCTCGAGTAAACAAATTTTCCTAATCTTTCTGTTCAAGCGCCATCTAC”, the binding signal is 0.913 RPM ratio (pull-down/input).
As for “GATGATTGTTCTCCCAGCTGATGAATTACCAATTTCGAGTAAACAAATTTTCCTAATCTTTCTGTTCAAGCGCCATCTAC”, the binding signal was 1.13 RPM ratio (pull-down/input).
With “GATGATTGTTCTCCCAGCTGATGAATTTCGTATTTCGAGTAAACAAATTTTCCTAATCTTTCTGTTCAAGCGCCATCTAC” the figure was 0.973 RPM ratio (pull-down/input); with “GATGATTGTTCTCCCAGCTGATGAATTGCCATATTCGAGTAAACAAATTTTCCTAATCTTTCTGTTCAAGCGCCATCTAC”, 1.13 RPM ratio (pull-down/input).
Take “GATGATTGTTCTCCCAGCTGATGAATTCCTTATGTCGAGTAAACAAATTTTCCTAATCTTTCTGTTCAAGCGCCATCTAC”: the binding signal was 0.898 RPM ratio (pull-down/input).
As for “GATGATTGTTCTCCCAGCTGATGAATTCAGCGTATCGAGTAAACAAATTTTCCTAATCTTTCTGTTCAAGCGCCATCTAC”, the binding signal is 0.968 RPM ratio (pull-down/input).
For “GATGATTGTTCTCCCAGCTGATGAATTATGAAGATCGAGTAAACAAATTTTCCTAATCTTTCTGTTCAAGCGCCATCTAC”, the binding signal is 0.955 RPM ratio (pull-down/input).
“GATGATTGTTCTCCCAGCTGATGAATTTTTGGTGTCGAGTAAACAAATTTTCCTAATCTTTCTGTTCAAGCGCCATCTAC”: the binding signal is 0.926 RPM ratio (pull-down/input).
The figure for “GATGATTGTTCTCCCAGCTGATGAATTTGATTGTTCGAGTAAACAAATTTTCCTAATCTTTCTGTTCAAGCGCCATCTAC” is 1.39 RPM ratio (pull-down/input).
With “GATGATTGTTCTCCCAGCTGATGAATTATTCACGTCGAGTAAACAAATTTTCCTAATCTTTCTGTTCAAGCGCCATCTAC” the figure was 1 RPM ratio (pull-down/input); with “GATGATTGTTCTCCCAGCTGATGAATTCCTAGTGTCGAGTAAACAAATTTTCCTAATCTTTCTGTTCAAGCGCCATCTAC”, 0.912 RPM ratio (pull-down/input).
For the sequence “GATGATTGTTCTCCCAGCTGATGAATTCCCCCCCTCGAGTAAACAAATTTTCCTAATCTTTCTGTTCAAGCGCCATCTAC”, the binding signal was 0.762 RPM ratio (pull-down/input).
With “GATGATTGTTCTCCCAGCTGATGAATTCACGGAGTCGAGTAAACAAATTTTCCTAATCTTTCTGTTCAAGCGCCATCTAC” the figure was 0.794 RPM ratio (pull-down/input).
“GATGATTGTTCTCCCAGCTGATGAATTGGATTACTCGAGTAAACAAATTTTCCTAATCTTTCTGTTCAAGCGCCATCTAC”: the binding signal is 0.882 RPM ratio (pull-down/input).
For “GATGATTGTTCTCCCAGCTGATGAATTCGTTGGCTCGAGTAAACAAATTTTCCTAATCTTTCTGTTCAAGCGCCATCTAC”, the binding signal was 0.774 RPM ratio (pull-down/input).
The figure for “GATGATTGTTCTCCCAGCTGATGAATTGCCCCTATCGAGTAAACAAATTTTCCTAATCTTTCTGTTCAAGCGCCATCTAC” is 0.967 RPM ratio (pull-down/input); for “GATGATTGTTCTCCCAGCTGATGAATTTACTGTCTCGAGTAAACAAATTTTCCTAATCTTTCTGTTCAAGCGCCATCTAC” it is 1.12 RPM ratio (pull-down/input); for “GATGATTGTTCTCCCAGCTGATGAATTCCTGTCCTCGAGTAAACAAATTTTCCTAATCTTTCTGTTCAAGCGCCATCTAC” it is 0.842 RPM ratio (pull-down/input).
With “GATGATTGTTCTCCCAGCTGATGAATTCGGTACATCGAGTAAACAAATTTTCCTAATCTTTCTGTTCAAGCGCCATCTAC” the figure was 0.991 RPM ratio (pull-down/input); with “GATGATTGTTCTCCCAGCTGATGAATTCCATAATTCGAGTAAACAAATTTTCCTAATCTTTCTGTTCAAGCGCCATCTAC”, 0.893 RPM ratio (pull-down/input).

These data come from paper PMC12820563, “FoxP3 forms a head-to-head dimer in vivo and stabilizes its multimerization on adjacent microsatellites”.
